Assay results from the supplement of paper PMC9151546.
Many values rest on one well or one pass, so single values are uncertain.

Tests used:
CHO-K1 [1] = test: relative survival (nuclei to bead ratio vs DMSO control) (% of vehicle control); higher = more surviving cells
CHO-K1 [2] = test: micronucleus frequency (% of nucleated events); higher = more micronuclei (genotoxic)
CHO-K1 [3] = test: hypodiploid nuclei frequency (% of nucleated events); higher = more hypodiploid events (aneugenic)
[4] = concentration: 4.5 (µM), S9 metabolic activation: with S9, exposure time: 3-4 hours
[5] = concentration: 4.5 (µM), S9 metabolic activation: without S9, exposure time: 24 hours
[6] = concentration: 5.63 (µM), S9 metabolic activation: with S9, exposure time: 3-4 hours
[7] = concentration: 5.63 (µM), S9 metabolic activation: without S9, exposure time: 24 hours
[8] = concentration: 7.04 (µM), S9 metabolic activation: with S9, exposure time: 3-4 hours
[9] = concentration: 7.04 (µM), S9 metabolic activation: without S9, exposure time: 24 hours
[10] = concentration: 8.8 (µM), S9 metabolic activation: with S9, exposure time: 3-4 hours
[11] = concentration: 8.8 (µM), S9 metabolic activation: without S9, exposure time: 24 hours
[12] = concentration: 11 (µM), S9 metabolic activation: with S9, exposure time: 3-4 hours
[13] = concentration: 11 (µM), S9 metabolic activation: without S9, exposure time: 24 hours
[14] = concentration: 13.7 (µM), S9 metabolic activation: with S9, exposure time: 3-4 hours
[15] = concentration: 13.7 (µM), S9 metabolic activation: without S9, exposure time: 24 hours
[16] = concentration: 17.2 (µM), S9 metabolic activation: with S9, exposure time: 3-4 hours
[17] = concentration: 17.2 (µM), S9 metabolic activation: without S9, exposure time: 24 hours
[18] = concentration: 21.5 (µM), S9 metabolic activation: with S9, exposure time: 3-4 hours
[19] = concentration: 21.5 (µM), S9 metabolic activation: without S9, exposure time: 24 hours
[20] = concentration: 26.8 (µM), S9 metabolic activation: with S9, exposure time: 3-4 hours
[21] = concentration: 26.8 (µM), S9 metabolic activation: without S9, exposure time: 24 hours
[22] = concentration: 33.6 (µM), S9 metabolic activation: with S9, exposure time: 3-4 hours
[23] = concentration: 33.6 (µM), S9 metabolic activation: without S9, exposure time: 24 hours
[24] = concentration: 41.9 (µM), S9 metabolic activation: with S9, exposure time: 3-4 hours
[25] = concentration: 41.9 (µM), S9 metabolic activation: without S9, exposure time: 24 hours
[26] = concentration: 52.4 (µM), S9 metabolic activation: with S9, exposure time: 3-4 hours
[27] = concentration: 52.4 (µM), S9 metabolic activation: without S9, exposure time: 24 hours
[28] = concentration: 65.5 (µM), S9 metabolic activation: with S9, exposure time: 3-4 hours
[29] = concentration: 65.5 (µM), S9 metabolic activation: without S9, exposure time: 24 hours
[30] = concentration: 81.9 (µM), S9 metabolic activation: with S9, exposure time: 3-4 hours
[31] = concentration: 81.9 (µM), S9 metabolic activation: without S9, exposure time: 24 hours
[32] = concentration: 102 (µM), S9 metabolic activation: with S9, exposure time: 3-4 hours
[33] = concentration: 102 (µM), S9 metabolic activation: without S9, exposure time: 24 hours
[34] = concentration: 128 (µM), S9 metabolic activation: with S9, exposure time: 3-4 hours
[35] = concentration: 128 (µM), S9 metabolic activation: without S9, exposure time: 24 hours
[36] = concentration: 160 (µM), S9 metabolic activation: with S9, exposure time: 3-4 hours
[37] = concentration: 160 (µM), S9 metabolic activation: without S9, exposure time: 24 hours
[38] = concentration: 200 (µM), S9 metabolic activation: with S9, exposure time: 3-4 hours
[39] = concentration: 200 (µM), S9 metabolic activation: without S9, exposure time: 24 hours
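For hypodiploid nuclei frequency (% of nucleated events) in this document: hypodiploid nuclei gated on a flow cytometer with 488 nm excitation after SYTOX Green staining, cultures at 37 °C, positive controls vinblastine without S9 and cyclophosphamide with S9.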
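For micronucleus frequency (% of nucleated events) in this document: cells lysed with nuclei stained by SYTOX Green, then micronucleus-gated events counted against nucleated events by flow cytometry with 488 nm excitation.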
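For relative survival (nuclei to bead ratio vs DMSO control) in this document: Lysed-cell nuclei stained with SYTOX Green and counted against counting beads by flow cytometry at 488 nm excitation, with vinblastine (no S9) and cyclophosphamide (plus S9) as positive controls.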

c1ccc(C2CO2)cc1 (stereo not drawn) [Styrene oxide]
relative survival (CHO-K1 [1]; [4]): 137
relative survival (CHO-K1 [1]; [5]): 102
relative survival (CHO-K1 [1]; [6]): 141
relative survival (CHO-K1 [1]; [7]): 98.5
relative survival (CHO-K1 [1]; [8]): 137
relative survival (CHO-K1 [1]; [9]): 101
relative survival (CHO-K1 [1]; [10]): 113
relative survival (CHO-K1 [1]; [11]): 85.2
relative survival (CHO-K1 [1]; [12]): 102
relative survival (CHO-K1 [1]; [13]): 115
relative survival (CHO-K1 [1]; [14]): 137
relative survival (CHO-K1 [1]; [15]): 112
relative survival (CHO-K1 [1]; [16]): 127
relative survival (CHO-K1 [1]; [17]): 97.3
relative survival (CHO-K1 [1]; [18]): 115
relative survival (CHO-K1 [1]; [19]): 94.9
relative survival (CHO-K1 [1]; [20]): 112
relative survival (CHO-K1 [1]; [21]): 67.2
relative survival (CHO-K1 [1]; [22]): 108
relative survival (CHO-K1 [1]; [23]): 101
relative survival (CHO-K1 [1]; [24]): 102
relative survival (CHO-K1 [1]; [25]): 107
relative survival (CHO-K1 [1]; [26]): 110
relative survival (CHO-K1 [1]; [27]): 94.9
relative survival (CHO-K1 [1]; [28]): 93.8
relative survival (CHO-K1 [1]; [29]): 69.8
relative survival (CHO-K1 [1]; [30]): 94.7
relative survival (CHO-K1 [1]; [31]): 99.3
relative survival (CHO-K1 [1]; [32]): 112
relative survival (CHO-K1 [1]; [33]): 108
relative survival (CHO-K1 [1]; [34]): 90.7
relative survival (CHO-K1 [1]; [35]): 108
relative survival (CHO-K1 [1]; [36]): 88
relative survival (CHO-K1 [1]; [37]): 76.6
relative survival (CHO-K1 [1]; [38]): 109
relative survival (CHO-K1 [1]; [39]): 88.1
micronucleus frequency (CHO-K1 [2]; [4]): 1.44%
micronucleus frequency (CHO-K1 [2]; [5]): 1.2%
micronucleus frequency (CHO-K1 [2]; [6]): 1.96%
micronucleus frequency (CHO-K1 [2]; [7]): 1.16%
micronucleus frequency (CHO-K1 [2]; [8]): 1.44%
micronucleus frequency (CHO-K1 [2]; [9]): 1.34%
micronucleus frequency (CHO-K1 [2]; [10]): 1.4%
micronucleus frequency (CHO-K1 [2]; [11]): 1.56%
micronucleus frequency (CHO-K1 [2]; [12]): 1.36%
micronucleus frequency (CHO-K1 [2]; [13]): 1.34%
micronucleus frequency (CHO-K1 [2]; [14]): 1.7%
micronucleus frequency (CHO-K1 [2]; [15]): 1.28%
micronucleus frequency (CHO-K1 [2]; [16]): 2.14%
micronucleus frequency (CHO-K1 [2]; [17]): 1.24%
micronucleus frequency (CHO-K1 [2]; [18]): 1.26%
micronucleus frequency (CHO-K1 [2]; [19]): 1.42%
micronucleus frequency (CHO-K1 [2]; [20]): 1.08%
micronucleus frequency (CHO-K1 [2]; [21]): 1.16%
micronucleus frequency (CHO-K1 [2]; [22]): 1.28%
micronucleus frequency (CHO-K1 [2]; [23]): 2.02%
micronucleus frequency (CHO-K1 [2]; [24]): 1.08%
micronucleus frequency (CHO-K1 [2]; [25]): 1.48%
micronucleus frequency (CHO-K1 [2]; [26]): 1%
micronucleus frequency (CHO-K1 [2]; [27]): 1.98%
micronucleus frequency (CHO-K1 [2]; [28]): 1.56%
micronucleus frequency (CHO-K1 [2]; [29]): 1.6%
micronucleus frequency (CHO-K1 [2]; [30]): 1.44%
micronucleus frequency (CHO-K1 [2]; [31]): 1.54%
micronucleus frequency (CHO-K1 [2]; [32]): 1%
micronucleus frequency (CHO-K1 [2]; [33]): 1.42%
micronucleus frequency (CHO-K1 [2]; [34]): 1.68%
micronucleus frequency (CHO-K1 [2]; [35]): 2.02%
micronucleus frequency (CHO-K1 [2]; [36]): 1.6%
micronucleus frequency (CHO-K1 [2]; [37]): 2.42%
micronucleus frequency (CHO-K1 [2]; [38]): 1.62%
micronucleus frequency (CHO-K1 [2]; [39]): 3.04%
hypodiploid nuclei frequency (CHO-K1 [3]; [4]): 0.42%
hypodiploid nuclei frequency (CHO-K1 [3]; [5]): 0.46%
hypodiploid nuclei frequency (CHO-K1 [3]; [6]): 0.42%
hypodiploid nuclei frequency (CHO-K1 [3]; [7]): 0.54%
hypodiploid nuclei frequency (CHO-K1 [3]; [8]): 0.32%
hypodiploid nuclei frequency (CHO-K1 [3]; [9]): 0.48%
hypodiploid nuclei frequency (CHO-K1 [3]; [10]): 0.3%
hypodiploid nuclei frequency (CHO-K1 [3]; [11]): 0.62%
hypodiploid nuclei frequency (CHO-K1 [3]; [12]): 0.14%
hypodiploid nuclei frequency (CHO-K1 [3]; [13]): 0.58%
hypodiploid nuclei frequency (CHO-K1 [3]; [14]): 0.2%
hypodiploid nuclei frequency (CHO-K1 [3]; [15]): 0.76%
hypodiploid nuclei frequency (CHO-K1 [3]; [16]): 0.3%
hypodiploid nuclei frequency (CHO-K1 [3]; [17]): 0.62%
hypodiploid nuclei frequency (CHO-K1 [3]; [18]): 0.26%
hypodiploid nuclei frequency (CHO-K1 [3]; [19]): 0.54%
hypodiploid nuclei frequency (CHO-K1 [3]; [20]): 0.32%
hypodiploid nuclei frequency (CHO-K1 [3]; [21]): 0.72%
hypodiploid nuclei frequency (CHO-K1 [3]; [22]): 0.28%
hypodiploid nuclei frequency (CHO-K1 [3]; [23]): 0.74%
hypodiploid nuclei frequency (CHO-K1 [3]; [24]): 0.34%
hypodiploid nuclei frequency (CHO-K1 [3]; [25]): 0.92%
hypodiploid nuclei frequency (CHO-K1 [3]; [26]): 0.28%
hypodiploid nuclei frequency (CHO-K1 [3]; [27]): 1.04%
hypodiploid nuclei frequency (CHO-K1 [3]; [28]): 0.32%
hypodiploid nuclei frequency (CHO-K1 [3]; [29]): 0.92%
hypodiploid nuclei frequency (CHO-K1 [3]; [30]): 0.34%
hypodiploid nuclei frequency (CHO-K1 [3]; [31]): 0.7%
hypodiploid nuclei frequency (CHO-K1 [3]; [32]): 0.2%
hypodiploid nuclei frequency (CHO-K1 [3]; [33]): 0.82%
hypodiploid nuclei frequency (CHO-K1 [3]; [34]): 0.2%
hypodiploid nuclei frequency (CHO-K1 [3]; [35]): 0.8%
hypodiploid nuclei frequency (CHO-K1 [3]; [36]): 0.3%
hypodiploid nuclei frequency (CHO-K1 [3]; [37]): 0.86%
hypodiploid nuclei frequency (CHO-K1 [3]; [38]): 0.14%
hypodiploid nuclei frequency (CHO-K1 [3]; [39]): 0.92%
